Laboratory results: the supplement of paper PMC11417369
± gives the standard deviation of the averaged measurements. The list shows a part of the results.

tested on: PfAP2-EXP AP2 domain (GST-tagged); experiment: gcPBM binding intensity (ln(normalized median fluorescence intensity)); higher = stronger DNA binding
Procedure, shortened: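 The binding buffer was 1× PBS containing 1% milk, 0.2 mg/ml BSA, 0.5% salmon testes DNA and 0.03% Triton X-100. In it, GST-tagged P. falciparum DNA-binding domains expressed in E. coli were applied for 1 h to an Agilent 4 × 180k array of primer-extended double-stranded 36-bp intergenic genomic probes plus negative controls. Binding intensity, read with Alexa488 anti-GST antibody and a 488 nm scan, is the highest Masliner-normalised natural-log median intensity across replicate spots of either probe orientation.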

First: ATTATTGTTTATTGATTTTTGTTAAAATAGGAAATT [GTGCAC_negctrl_site181]
Second: CAAATTTTTTATTAAACACACAAACATATATATATA [CACACA_site5122]
The “gcPBM binding intensity (ln)” value of the first is lower: 8.37 ± 0.4 for the first, 9.95 ± 0.2 for the second.

“AAGTGTAAAAGTTACACACACAAACTTGTCATTTTT [CACACA_site4614]” and “TTCTTTATTATATGCACACGTACATAAAATATATAT [CACACA_site5157]” are within error of each other in “gcPBM binding intensity (ln)” value: 8.74 ± 0.51 for the first, 8.72 ± 0.19 for the second.

Compared with “ATTTTTTTTTTTTTTTGTACGAATAATATGTATGAA [XGTACX_site5318]”, “TATAAAAAATATATATATAATATTATATATATATAT [TGCATGCA_negctrl_site260]” is higher in “gcPBM binding intensity (ln)” value: 8.29 ± 0.32 for the first, 9.77 ± 0.32 for the second.

“AAAGGAGGGAATTTTTCTAGGTGTGGAGTGCTACTC [XGTACX_negctrl_site63]” and “TCGTCTCAATAATTATAATAAAAAAATTCCTAAGTC [CACACA_negctrl_site338]” are within error of each other in “gcPBM binding intensity (ln)” value: 8.38 ± 0.42 for the first, 8.27 ± 0.36 for the second.

“ATTTTCCTATTTAGTAGTACTTTTTTCTTTTTTTAA [XGTACX_site5260]” and TTATATTTCACAAATGTGCACAGATACATATATATA are within error of each other in “gcPBM binding intensity (ln)” value: 8.81 ± 0.45 for the first, 9.13 ± 0.14 for the second.

“TTTTTGTTTCATAAATGTACAAAAACAAACATATTT [XGTACX_site5281]” and “TTATATGTATATATAGTGCAGAACAAAAGATTATAT [GTGCAC_site9599]” are within error of each other in “gcPBM binding intensity (ln)” value: 8.29 ± 0.41 for the first, 8.91 ± 0.4 for the second.

“AATTTAATCCGTAATAAGAAAAGAAAAAAAAAAAGA [GTGCAC_negctrl_site129]” and “ATTAGCTACAAACAAAGGCTACCTATAGCAAGAGGG [GTGCAC_negctrl_site33]” are within error of each other in “gcPBM binding intensity (ln)” value: 8.48 ± 0.47 for the first, 8.84 ± 0.39 for the second.

“TATATATATACATACATACACACATATATATATATA [CACACA_site4109]” and “ATAATTTCTTTTACATGTACAAAATTTGCTTATATG [XGTACX_site5388]” are within error of each other in “gcPBM binding intensity (ln)” value: 10.1 ± 0.67 for the first, 9.1 ± 0.47 for the second.

“ATATATATAATGTGAAGTACATTTTGTTTACATATT [XGTACX_site8405]” and “TAATTTATGGAATATGTGCACTTGCTGATCACTTTT [GTGCAC_site9843]” are within error of each other in “gcPBM binding intensity (ln)” value: 8.91 ± 0.42 for the first, 8.89 ± 0.29 for the second.

Compared with “GGATTATTTATAGGAGTGCATACATATATATATATA [GTGCAC_site9454]”, “TTTACACTTTCCAATAGTACATATTAGAATAATTCT [XGTACX_site7734]” is lower in “gcPBM binding intensity (ln)” value: 10.1 ± 0.41 for the first, 8.51 ± 0.3 for the second.

“TTTATTAAATAATCTCTTTTTATTACATAATAATAA [XGTACX_negctrl_site382]” and “AATATCTAAATAAAGTGTACTTACCTTATTAATTAT [XGTACX_site2276]” are within error of each other in “gcPBM binding intensity (ln)” value: 7.93 ± 0.43 for the first, 8.2 ± 0.4 for the second.

“CCAATACATAGAAACTGTACATTATGCATTATACAC [XGTACX_site3531]” and “AATAAACATAAATACACACACAAAAAAAAAAACATA [CACACA_site4396]” are within error of each other in “gcPBM binding intensity (ln)” value: 8.79 ± 0.28 for the first, 8.61 ± 0.56 for the second.

Going from “TTTTTTTTTTTTTGATGTACTAAAAAAAATGAGCCT [XGTACX_site8535]” to “AAATATTACTACACTACATGCAGTTTTAGGTACACT [TGCATGCA_site42]”, the “gcPBM binding intensity (ln)” value rises from 8.16 ± 0.22 to 8.97 ± 0.29.

“AAAAACAAAATATAATGTACACAATATATGTATATA [XGTACX_site2301]” and “TGTAGTCTGGAGAAGAGTACATAGTATCTGGTAACA [XGTACX_site4944]” are within error of each other in “gcPBM binding intensity (ln)” value: 8.52 ± 0.19 for the first, 8.7 ± 0.26 for the second.

“TATAGGTAAATGGACACACACATATTTATATTTATA [CACACA_site7683]” and “ATAGAAGCATCACACTGTACATGGATGAACAGAAAA [XGTACX_site7311]” are within error of each other in “gcPBM binding intensity (ln)” value: 8.64 ± 0.44 for the first, 8.72 ± 0.44 for the second.

“TATAATATAAGGATCACACACAAACAGACATATATA [CACACA_site557]” and “TTATTAGGTGTATAATGTACATATAATATATATATA [XGTACX_site3398]” are within error of each other in “gcPBM binding intensity (ln)” value: 9.03 ± 0.49 for the first, 9.405 ± 0.035 for the second.

“TAATGTTTTTATATCACACACAAATATTAAATGATT [CACACA_site543]” and “TTAAAAATTATGGATACACACATATATATATATATT [CACACA_site2383]” are within error of each other in “gcPBM binding intensity (ln)” value: 8.33 ± 0.42 for the first, 8.32 ± 0.3 for the second.

“GATATTAAAATATGTAGTACACATATTATATCATAT [XGTACX_site4167]” and “ATAGTTCCTTTTAATACACACAAAAAAAAAAACATG [CACACA_site3415]” are within error of each other in “gcPBM binding intensity (ln)” value: 8.58 ± 0.11 for the first, 8.45 ± 0.42 for the second.

“TACATATTTGTATATGCACACATAAATTTTTCCATT [CACACA_site9148]” and “AAATATTTATACCACACACACATACCTCTATTTGTA [CACACA_site6957]” are within error of each other in “gcPBM binding intensity (ln)” value: 8.48 ± 0.25 for the first, 8.69 ± 0.51 for the second.

“TAAATATAGGGTAATAGTACATAATTATATTCTTTT [XGTACX_site3883]” and “TTTTTTTTTTTTTAATGTACCCATGGGCACATAGGT [XGTACX_site486]” are within error of each other in “gcPBM binding intensity (ln)” value: 8.3 ± 0.34 for the first, 8.53 ± 0.23 for the second.

TATATTTATATATTAGTGCACTTTTTGTTAATTTTT and “AATGGATTAGCTAGCACACACAAAAAAAAAAAAAAA [CACACA_site3031]” are within error of each other in “gcPBM binding intensity (ln)” value: 8.79 ± 0.19 for the first, 8.38 ± 0.61 for the second.

“GATACAAAATGGGGAACACACACATATATATATATA [CACACA_site9278]” and “TATATATATATATAATGTACGAATAGAAAAAAAAAA [XGTACX_site7231]” are within error of each other in “gcPBM binding intensity (ln)” value: 10.1 ± 0.38 for the first, 9.88 ± 0.3 for the second.
